Laboratory results as given in US9803019B2, “Carrier immunoglobulins and uses thereof” (Amgen Inc., priority 2010, dated 2017).

Experiment: Rat PK, 5 mg/kg SC (Example 10)
Type: in vivo, Sprague-Dawley (SD) rats
Conditions: SD rat, SC 5 mg/kg
Protocol: The pharmacokinetic profiles of the 16435 and 4341 antibodies were determined in adult Sprague-Dawley (SD) rats (n=3 per group) by injecting 5 mg/kg subcutaneously and collecting approximately 250 μL of blood in Microtainer® serum separator tubes at 0, 0.25, 1, 4, 24, 48, 72, 168, 336, 504, 672, 840 and 1008 hours post-dose from the lateral tail vein. Each sample was maintained at room temperature following collection, and following a 30-40 minute clotting period, samples were centrifuged at 2-8° C. at 11,500 rpm for about 10 minutes using a calibrated Eppendorf 5417R Centrifuge System (Brinkmann Instruments, Inc., Westbury, N.Y.). The collected serum was then transferred into a pre-labeled (for each rat), cryogenic storage tube and stored at −60° C. to −80° C. for future analysis. To measure the serum sample concentrations from the PK study samples, the following method was used: ½ area black plate (Corning 3694) was coated with 2 μg/ml of anti-hu Fc, antibody 1.35.1 in PBS and then incubated overnight at 4° C. The plate was then washed and blocked with I-Block™ (Applied Biosystems) overnight at 4° C. If samples needed to be diluted, then they were diluted in Rat SD serum. The standards and samples were then diluted 1:20 in 1×PBS+1M NaCl+0.5% Tween 20 and 1% BSA buffer (5% serum). The plate was washed and 50-μl samples of diluted standards and samples were transferred into an antibody 1.35.1 coated plate and incubated for 1.5 h at room temperature. The plate was washed, then 50 μl of 100 ng/ml of anti-hu Fc antibody 21.1-HRP conjugate in I-Block™+5% BSA was added and incubated for 1.5 h. The plate was washed, then 50 μl of Pico substrate were added, after which the plate was immediately analyzed with a luminometer. Time concentration data were analyzed using non-compartmental methods with WinNonLin® (Enterprise version 5.1.1, 2006, Pharsight® Corp. Mountain View, Calif.) (figure 34.0). Both molecules have good PK profile in rats with half life of over 10 days.

B1: 4341 (antibody)
heavy: QVQLQESGPGLVKPSQTLSLTCTVSGGSISSGDYFWSWIRQLPGKGLEWIGHIHNSGTTYYNPSLKSRVTISVDTSKKQFSLRLSSVTAADTAVYYCARDRGGDYAYGMDVWGQGTTVTVSSASTKGPSVFPLAPSSKSTSGGTAALGCLVKDYFPEPVTVSWNSGALTSGVHTFPAVLQSSGLYSLSSVVTVPSSSLGTQTYICNVNHKPSNTKVDKRV[here human IgG1 Fc without letters]
light: EIVLTQSPGTLSLSPGERATLSCRASQGISRSELAWYQQKPGQAPSLLIYGASSRATGIPDRFSGSGSGTDFTLTISRLEPEDFAVYYCQQFGSSPWTFGQGTKVEIKRTVAAPSVFIFPPSDEQLKSGTASVVCLLNNFYPREAKVQWKVDNALQSGNSQESVTEQDSKDSTYSLSSTLTLSKADYEKHKVYACEVTHQGLSSPVTKSFNRGEC
  AUC0-inf: 26,661,802 ng · h/mL
  AUC0-t: 22,280,335 ng · h/mL
  CL/F: 4.56 mL/day/kg
  Cmax: 38,963 ng/mL
  MRT: 24.2 days
  T1/2: 15.2 days
  Tmax: 5.67 days
